Experimental data: PubChem BioAssay AID760 (NMMLSC, 2007)
Screen size: about 190,000 compounds; about 360 (0.19%) were called active. The inconclusive results got no clear call from the source; some entries with a clear call stand among them for comparison.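 Rule for the calls: active = GTP binding activity at least 20 points away from 100%, either lowered or raised; inconclusive = signal likely due to the compound's own green fluorescence; inactive = the rest.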

Target: Ras-related protein Rab-2A (Canis lupus familiaris) (UniProt P61105)
Assay: Rab2 wt fluorescent GTP binding changes, either direction – biochemical, dog, bead-based flow cytometry, multiplex, primary screen (AID 760);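 note: 0% = beads with excess unlabeled GTP and 100% = no-compound control corrected for plate trend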
Conditions: GST-Rab2 wt beads, Bodipy-GTP binding, at 10 µM

SMILES	GTP binding activity
Cc1nn(C)c(C)c1CNC(=O)c1cnn2c1NC(c1ccccc1)CC2C(F)(F)F (configuration not stated)	inconclusive: 107%
COc1cc(/C=N/NC(=S)Nc2cccc(C(=O)O)c2)cc(OC)c1OC	inconclusive: 96%
O=C(COC(=O)/C=C/c1ccc(Cl)cc1)Nc1ccc2c(c1)OCCO2	active: 76%
CCC(=O)N1c2ccc(S(=O)(=O)N(CCO)Cc3ccccc3)cc2CC1C (configuration not stated)	inconclusive: 104%
Cc1ccc(C(=O)CC(=O)COc2ccc(Cl)cc2C)cc1	inconclusive: 92%
CCOC(=O)N1CCC(NC(=O)CCc2c(C)nc3c(c(C)nn3C(C)(C)C)c2C)CC1	inconclusive: 102%
O=c1cc(-c2ccccc2)n(S(=O)(=O)c2ccccc2)o1	inactive: 96%
N=c1c(C(=O)NCc2ccco2)cc2c(=O)n3ccccc3nc2n1CCc1ccccc1	active: 75%
COc1cc(NC(=O)c2cccs2)c(OC)cc1NC(=O)CCC(=O)Nc1ccc2ncccc2c1	active: 71%
Cc1c(Cl)sn(-c2ccc(Cl)cc2)c1=O	inactive: 104%
Cc1ccc2[nH]cc(C(=O)CCl)c2c1	inconclusive: 104%
COc1ccc(/C=C2/SC(=O)N(CC(=O)Nc3cc(C)on3)C2=O)cc1OC	inconclusive: 103%
CN(C)c1ccc(NC(=O)CN2C(=O)CC(c3ccccc3)=Nc3ccccc32)cc1	inconclusive: 90%
N#Cc1nc(COc2ccccc2Cl)oc1NCc1ccc(F)cc1	inconclusive: 111%
CN(C)c1nnnn1-c1ccccc1Oc1ncc(C(F)(F)F)cc1Cl	inconclusive: 92%
CCCNC(=O)NC(=O)CSc1nncs1	inactive: 96%
O=S(=O)(Nc1cc(Sc2cccc3cccnc23)c(O)c2ccccc12)c1ccccc1	inconclusive: 89%
N#Cc1c(N)n(CCCN2CCOCC2)c2nc3ccccc3nc12	inconclusive: 95%
CSc1nsc(SCC(=O)N2CCCCC2)n1	inactive: 101%
CC(=O)c1c(N2CCN(C)CC2)nc(=S)n(-c2cc(C)ccc2C)c1C	inactive: 95%
N#C/C(=C\c1ccncc1)c1nc2ccccc2c(=O)[nH]1	inconclusive: 93%
COc1ccc(/C=N/NC(=O)c2ccncc2)cc1Cn1nc([N+](=O)[O-])c(Br)c1C	active: 68%
CCOC(=O)c1ccc(Nc2ccc(-c3ccc(OC)c(OC)c3)nn2)cc1	inconclusive: 104%

SMILES	GTP binding activity
CN(C)C(=O)C1CCC(=O)N1Cc1cccs1 (configuration not stated)	inactive: 98%
COc1ccc(N2CCN(c3nc(=S)n(-c4ccccc4)c(C)c3C(C)=O)CC2)cc1	inconclusive: 102%
COC(=O)c1ccc(NC(=O)CSc2nncn2C)cc1	inconclusive: 100%
CC(NC(=O)c1cccnc1)C(c1cccs1)N1CCOCC1 (configuration not stated)	inconclusive: 103%
Cn1c(=O)n(C)c2cc([N+](=O)[O-])c(N3CCN(S(=O)(=O)c4ccc5ccccc5c4)CC3)cc21	inconclusive: 92%
Cc1ccc(-c2csc(NC(=O)CCNC(=O)c3ccccc3Cl)n2)cc1	inactive: 98%
NS(=O)(=O)c1ccc(CCNC(=O)CN2CCC(Cc3ccccc3)CC2)cc1	inconclusive: 89%
O=C(/C=C/c1ccc(N2CCC(c3ccccc3)=N2)cc1)c1ccccc1	inconclusive: 465%
Cc1cc(C)c(O)c(-c2cc(C(=O)Nc3ccc(S(=O)(=O)N4CCOCC4)cc3)[nH]n2)c1	inconclusive: 89%
O=C(NC(=S)Nc1ccc2c(c1)OCCO2)c1cccc2ccccc12	inactive: 98%
CCC(=O)Nc1nc(-c2ccccc2)ns1	inconclusive: 101%
COCCCC1CCN(Cc2cn[nH]c2-c2cc(OC)c(OC)c(OC)c2)CC1	inactive: 101%
Cc1ccc(S(=O)(=O)CC(CN2CCCCC2)N2CCCCC2)cc1 (configuration not stated)	inconclusive: 95%
Cc1ccc(OCC(=O)Nc2ccc3c(c2)CCC3)c([N+](=O)[O-])n1	inconclusive: 96%
COc1ccc(C2CC(C(F)(F)F)n3nc(C(=O)NCc4cn(C)nc4C)c(Cl)c3N2)cc1 (configuration not stated)	inconclusive: 102%
CCOc1ccccc1/C=N/NC(=O)c1cccc(S(=O)(=O)N(CC)CC)c1	inconclusive: 92%
O=C(O)CC/C(=C\c1cccc(NC(=O)c2ccccc2Cl)c1)c1nc2ccccc2s1	inactive: 92%
O=C(c1ccc(Cl)c(Cl)c1)N1CCC(=O)N(C(COCc2ccccc2)Cc2ccccc2)CC1 (configuration not stated)	inactive: 96%
C/C(=N\NC(=O)c1cccc(C)c1)c1ccc(N2CCOCC2)cc1	inconclusive: 94%
COCCCn1c(SCc2cc(=O)[nH]c3ccccc23)nnc1-c1ccco1	inconclusive: 95%
CC(=O)c1ccc(NC(=O)CSc2nnc(NC(=O)CN3CCOCC3)s2)cc1	inconclusive: 104%
COC(=O)c1ccc(NC(=S)NC2c3ccccc3CC2O)cc1 (configuration not stated)	inactive: 104%
CC1CCCCC1NC(=O)COC(=O)Cc1ccc(Br)cc1 (configuration not stated)	inconclusive: 97%

SMILES	GTP binding activity
Cc1ccc(S(=O)(=O)N(CC#N)CC#N)cc1	inactive: 96%
Cc1cc(=O)oc2cc(OCC(=O)OCC(=O)Nc3c(C)n(C)n(-c4ccccc4)c3=O)ccc12	inactive: 98%
COC(=O)c1ccc(CSc2nnc(-c3ccncc3)n2Cc2ccccc2)o1	inconclusive: 101%
O=C(CCN1C(=O)C2CCCCC2C1=O)Nc1ccc(F)c(F)c1F (configuration not stated)	inactive: 101%
CC1(C)COC(/C=C/c2ccc([N+](=O)[O-])cc2)=N1	inconclusive: 105%
CC(OC(=O)c1nsc(Cl)c1Cl)C(=O)NCc1ccc2c(c1)OCO2 (configuration not stated)	inconclusive: 85%
Cc1ccc(NC(=O)C(C)N2C(=O)c3ccccc3C2=O)cc1S(=O)(=O)N1CCOCC1 (configuration not stated)	inactive: 95%
Cc1cc(Cl)ccc1OC(C)C(=O)NCCCn1ccnc1 (configuration not stated)	inactive: 98%
COc1ccc(/C=N/NC(=O)c2cccc([N+](=O)[O-])c2)cc1OC	inactive: 99%
CC(C)C(c1nnnn1Cc1cccs1)N1CCN(C(=O)c2ccco2)CC1 (configuration not stated)	inactive: 97%
CC(C(=O)NCC1CCCCC1)N1CCc2ccccc2C1 (configuration not stated)	inconclusive: 93%
O=C(CN1C(=O)S/C(=C/c2ccncc2)C1=O)N1CCOCC1	inactive: 95%
CCCCCCSc1nc(O)c(C2OC(=O)c3c2ccc(OC)c3OC)c(=O)n1-c1ccccc1 (configuration not stated)	inactive: 98%
Cc1cc(NC(=O)c2ccccc2)nc2c1c(=O)oc1ccccc12	inconclusive: 84%
O=C1CC(Cc2ccccc2)C(=O)N1CCCn1ccnc1 (configuration not stated)	inconclusive: 101%
COCc1cc(C)nc(OCC(=O)N/N=C/c2ccc(O)cc2O)c1C#N	inconclusive: 91%
COc1cccc(C(=O)CN(C(=O)c2ccc(Cl)cc2Cl)N2C(=O)c3ccccc3C2=O)c1	inactive: 99%
O=C(CNC(=O)C1CCCCC1)OCC(=O)c1ccc(Cl)s1	inconclusive: 93%
Cc1cccc(-c2noc(CCC(=O)NCC3CCCO3)n2)c1 (configuration not stated)	inactive: 101%
O/N=C1\CCCC\C1=C/c1ccccc1	inactive: 97%
CN(Cc1cnn(C)c1)S(=O)(=O)c1cccc([N+](=O)[O-])c1	inactive: 90%
c1ccc(C2CC(c3ccccc3)n3c(nc4ccccc43)N2)cc1 (configuration not stated)	inactive: 101%
O=C(NCCOCCNC(=O)OCc1ccccc1)OCc1ccccc1	inactive: 95%

SMILES	GTP binding activity
Cc1ccnc(N2C(=O)OC(C)(C)C2(C)O)c1 (configuration not stated)	inconclusive: 107%
Cc1cccc(-n2nc(CC#N)c(C#N)c2N)c1	active: 78%
O=C(O)COc1ccc(Br)cc1/C=C1/SC(=O)N(CC(=O)N2CCCC2)C1=O	inconclusive: 100%
CC1=NNC(=O)C1CCC(=O)N/N=C(/C)c1ccc([N+](=O)[O-])cc1 (configuration not stated)	inconclusive: 102%
CCCN(CCC)CCNS(=O)(=O)c1ccc2c(c1)oc(=O)n2C	inconclusive: 104%
O=C(CN1CCC(n2nnc3cc(C(F)(F)F)ccc32)CC1)NNC(=O)c1ccco1	inactive: 99%
Cc1ccc(NC(=O)CN2C(=O)C3C4C=CC(C4)C3C2=O)cc1S(=O)(=O)N(C)C (configuration not stated)	inconclusive: 99%
O=C(N/N=C/c1ccc(OCc2ccccc2)cc1)c1cc[n+](Cc2ccccc2)cc1	inconclusive: 101%
Cc1ccc(C)c(N2CCN(C(=O)c3ccc4nc(-c5ccco5)c(-c5ccco5)nc4c3)CC2)c1	inconclusive: 85%
O=C(CSc1nc2cc(Cl)ccc2s1)c1ccco1	inconclusive: 93%
N#CC1=C(N)N(c2ncn[nH]2)C2=C(C(=O)CCC2)C1c1ccccc1 (configuration not stated)	inconclusive: 95%
CCOc1ccc(CCNc2ccc3nnc(-c4ccccc4)n3n2)cc1OCC	active: 76%
Nc1ccc(-c2cn3cccnc3n2)cc1	active: 78%
O=c1oc2ccc3ccccc3c2cc1-c1nnc(-c2ccccc2)o1	inconclusive: 94%
O=C1NC(=S)N/C1=C/c1cc([N+](=O)[O-])ccc1O	inconclusive: 80%
O=c1cc(N2CCCC2)c2ccccc2o1	inactive: 101%
COC(=O)c1ccc2nc(Nc3nc4c(F)cc(F)cc4s3)sc2c1	active: 79%
COc1cc2[nH]c(=S)nc(Nc3ccc(NC(C)=O)cc3)c2cc1OC	inconclusive: 44%
Cc1ccn2c(NCc3ccc4c(c3)OCO4)c(-c3ccc(O)cc3)nc2c1	inactive: 100%
CC(=O)Nc1ccc(S(=O)(=O)Nc2nc3ccccc3nc2Nc2ccccc2)cc1	inconclusive: 93%
CC(C)CNS(=O)(=O)c1ccc(CCC(=O)O)cc1	inconclusive: 93%
CCN(CC)c1ccc(CNCc2cccs2)cc1	inconclusive: 98%
CCCCCOC(=O)c1ccccc1C(=O)O	inconclusive: 129%
